{"source": "paper PMC12136788", "binders": {"B1": {"name": "chr1:150220393:150220494:-|3pUTR|ENSG00000143401|msi1_unk|FALSE|overlapping (ssRNA)", "RNA": "GGGAGUUCUACAGUCCGACGAUCAUUGUAUGUAGAGAAAAAUUUUCAUUGACUCCCAUUGUGGAAUUCCCUAGCAAUUUAUUUAGACUUAAUUUUUUAAAUUCAAGCUUACUGUAUUAGUCAUUUUUAGCCCAUAAUUAAAACCAACAGAGGAUUGAGCAUCA"}, "B2": {"name": "ENSG00000107863:be:win_1851|CDS|ENSG00000107863|bound_else_gene|NA|bound_elsewhere_windowed (ssRNA)", "RNA": "GGGAGUUCUACAGUCCGACGAUCUCUUGUGAAAGUCCGAAGUAAUUCUCUGAAAGCUCCUUCCACGCAUGUCACAAAACCAUCAUUUAGCCAGAAAUCAUUUGUUUCUAUCAAAGACCAAAGACCAGUAAAUCACUUGCAUCACAACAGAGGAUUGAGCAUCA"}, "B3": {"name": "chr4:138171397:138171528:-|3pUTR|ENSG00000151012|msi1|total|mutant (ssRNA)", "RNA": "GGGAGUUCUACAGUCCGACGAUCAUUAUGGCAAAGAGGAGAGAAAGAAAUUUAUUUUACAUUGACAUUGCAUUGCUUCCCCUCCGAUACCAAUUCCGAUAACAAACACUCAUGCUUUAAUGGAUUAUACCCAGAGCACUUUGACAACAGAGGAUUGAGCAUCA"}, "B4": {"name": "chr1:150647640:150647741:-|3pUTR|ENSG00000143457|unk|FALSE|unique (ssRNA)", "RNA": "GGGAGUUCUACAGUCCGACGAUCAGAUUCAAUUACCUGGAUGUCAAAGUCCUAGAGCCAGAAAUAUAUUCUCUCAUCCCUCUUAGCAUUCUCUUGCUCCCUCAUUCACUAGGGCAAAUGUCUAAAUGAAGAAAAGUCUCUCUCCAACAGAGGAUUGAGCAUCA"}, "B5": {"name": "chr3:120327094:120327202:-|3pUTR|ENSG00000163428|unk|total|mutant (ssRNA)", "RNA": "GGGAGUUCUACAGUCCGACGAUCGAAGAGAAGUCACCAAACACCCCGGGACAGUCCCCGGCCCCGAAAGCCCUUUAAAGUAACCGUGAAUUGUUUUAAAAUUAAGUUAUUGAGUGGCCUACUGACUACCAUCCAAAAACCUUUCAACAGAGGAUUGAGCAUCA"}, "B6": {"name": "chr12:13219749:13219850:+|3pUTR|ENSG00000134531|unk|FALSE|unique (ssRNA)", "RNA": "GGGAGUUCUACAGUCCGACGAUCACAACAGUGGAUGGGGAGGAAGAACAGACUUUUGAGCUCUUCCCAAUAUAGGAAUGUGUUAGUUCUAAAAAUUUUCUUAAGUUGUUUGCUUGGAACUCAGAGUAUAUUUUUCCAUACGAACAACAGAGGAUUGAGCAUCA"}, "B7": {"name": "ENSG00000170312:stop:overlap|stop_codon|ENSG00000170312|stop_codon|NA|stop_codon (ssRNA)", "RNA": "GGGAGUUCUACAGUCCGACGAUCGCAAAAUGGCACUGAAUCAUCCAUAUUUUAAUGAUUUGGACAAUCAGAUUAAGAAGAUGUAGCUUUCUGACAAAAAGUUUCCAUAUGUUAUAUCAACAGAUAGUUGUGUUUUUAUUGUUACAACAGAGGAUUGAGCAUCA"}, "B8": {"name": "ENSG00000070961:be:win_5701|3pUTR|ENSG00000070961|bound_else_gene|NA|bound_elsewhere_windowed (ssRNA)", "RNA": "GGGAGUUCUACAGUCCGACGAUCCAUUUACCCUAAAUAAGGGUGGUGGACUAUCUUGAAGAACCCUUUCAACUCUAAAAAUUGACCCUAUCAACUGGAGAGCCCACAAGGCAUAGGGAAUAGAGAAAAGGGAAAUGUUUUCAGCAACAGAGGAUUGAGCAUCA"}, "B9": {"name": "chr7:115017934:115018035:+|3pUTR|ENSG00000135272|unk|FALSE|unique (ssRNA)", "RNA": "GGGAGUUCUACAGUCCGACGAUCUGAGAUGAAACGUAGUUUCUAGUUAUAUCAUUACUUAAAGGGCUUAAAAAGAAAAAACUUAGCAAACUUUUGAAUCUUUCUUUUAUUGCUAUUUACACAUACAUACACACAUACAAAACCCAACAGAGGAUUGAGCAUCA"}, "B10": {"name": "ENSG00000136451:be:win_101|CDS|ENSG00000136451|bound_else_gene|NA|bound_elsewhere_windowed (ssRNA)", "RNA": "GGGAGUUCUACAGUCCGACGAUCCCGUGGAGCCCCCUGAUCAGAAACCAUUGCUUCCAAUACCAAUAACUCAGAAACCUCAGGGUGCACCAGAAACAUUAAAGGAUGCCAUUGGGAUUAAAAAAGAAAAACCCAAAACUUCAUCAACAGAGGAUUGAGCAUCA"}, "B11": {"name": "chr10:89213657:89213758:-|3pUTR|ENSG00000107798|msi1|total|mutant (ssRNA)", "RNA": "GGGAGUUCUACAGUCCGACGAUCUUACAAUACUGUCCGGUGGACAAAAUGACAAUUGAUAUGUUUUUCUGAUAUAAUUACUUCCGCUGCACUAACAGUACAAUGCUUGUUAAUGGUUAAUACCGGCAGGGCGAAUACUACUUUCAACAGAGGAUUGAGCAUCA"}, "B12": {"name": "chr19:10133403:10133440:-|3pUTR|ENSG00000130816|msi1_unk|FALSE|overlapping (ssRNA)", "RNA": "GGGAGUUCUACAGUCCGACGAUCUUUUUUAUUAUGCAUUAUAUCAAAUCUACCACUGUAUGAGUGGAAAUUAAGACUUUAUGUAGUUUUUAUAUGUUGUAAUAUUUCUUCAAAUAAAUCUCUCCUAUAAACCACCCUGGGUGGCAACAGAGGAUUGAGCAUCA"}, "B13": {"name": "chr1:61462620:61462721:+|3pUTR|ENSG00000162599|unk|total|mutant (ssRNA)", "RNA": "GGGAGUUCUACAGUCCGACGAUCCUGUGGGCGUCCAUUCUUAUUCAACUAAAUCUCCACAGGUUUUUUGAGCUGGUGUGGAUCCGUUUAACUCUUGUAUUCAACCAUCCGUGCUACCACCUUCUCACAUUACAAUACAAUUACCAACAGAGGAUUGAGCAUCA"}, "B14": {"name": "chr12:110551788:110551968:-|CDS|ENSG00000196850|control|control|control (ssRNA)", "RNA": "GGGAGUUCUACAGUCCGACGAUCUUCUCAGGGACUUUAAUGCGGACGUGUGAACGUUUAGUAAAAGAAGGACGGUUCGUACCUAGUAAUCCCAUUGGAAUUCUCACCACAAGCUACUGUGAGUUGCUGCAAAAUAAAGUCCCUCAACAGAGGAUUGAGCAUCA"}, "B15": {"name": "ENSG00000107863:be:win_2951|CDS|ENSG00000107863|bound_else_gene|NA|bound_elsewhere_windowed (ssRNA)", "RNA": "GGGAGUUCUACAGUCCGACGAUCAGGAAGAGCAGCCCAUCAGUGUUAAUGCUUGCUUGAUAGACAUCUCUUACAGUGAGACCAAGAGGAAAAAUGUGUUUCGACUCACCACGUCCGACUGUGAAUGCCUGUUUCAGGCUGAAGCAACAGAGGAUUGAGCAUCA"}, "B16": {"name": "chrX:71300841:71300885:+|3pUTR|ENSG00000147140|msi1_unk|FALSE|overlapping (ssRNA)", "RNA": "GGGAGUUCUACAGUCCGACGAUCCCCCAUAUAUUACCCCUUCAUGUCCUAAAGAAGACAUUUUCUCUUAGAGAUUUUCAUUUUAGUGUAUCUUUAAAAAAAAAUCUUGUGUUAACUUGCCUCCAUCUUUUUCUUGGGUGAGGACAACAGAGGAUUGAGCAUCA"}, "B17": {"name": "ENSG00000070961:be:win_4851|3pUTR|ENSG00000070961|bound_else_gene|NA|bound_elsewhere_windowed (ssRNA)", "RNA": "GGGAGUUCUACAGUCCGACGAUCCAAUGUUUUUUUAAAAGACAUUUCAGCUUCUUUACUCAGUUCUGCAUAUACAGUGCAUCAGUCUGUUCUCUUUGACCACAAUUGGAAUACAUUUCAAGAUGGUAACAGCCCCAUGAAGUACAACAGAGGAUUGAGCAUCA"}, "B18": {"name": "chr20:53567570:53567671:-|3pUTR|ENSG00000171940|unk|FALSE|unique (ssRNA)", "RNA": "GGGAGUUCUACAGUCCGACGAUCUCACAAGCUGAGCCAUAUGUACAUAAUCUAGAUUUUGUUUUCAUAGUUUUGCACUUUUAUAGCCUAUUUUUGAAGAUUAACACAUUUGCAAGAUGAUUGACUCAAUCUUUGCCUAAUCCACAACAGAGGAUUGAGCAUCA"}, "B19": {"name": "chr5:83942588:83942842:-|3pUTR|ENSG00000164176|msi1|FALSE|unique (ssRNA)", "RNA": "GGGAGUUCUACAGUCCGACGAUCUUUUCUAAUUGAAUUUCCUAUUAGUUGACUAAAAGAAGUGUCAUGUUUACUCAUAUAUGUAGAACAUGACUGCCUAUCAGUAGAUUGAUCUGUAUUUAAUAUUCGUUAAUUAAAUCUGCACAACAGAGGAUUGAGCAUCA"}, "B20": {"name": "chr2:224511460:224511569:-|CDS|ENSG00000036257|unk|FALSE|bound_elsewhere (ssRNA)", "RNA": "GGGAGUUCUACAGUCCGACGAUCGAAAGCCAGAAAUUUUUAGCAGAAAAUAGUGCUUCAGUAUAUAUAAAGAAAGUAGAAGCUAGAAUUAAUGAAGAAAUAGAACGAGUGAUGCACUGCCUUGACAAAUCAACGGAAGAACCACAACAGAGGAUUGAGCAUCA"}, "B21": {"name": "chr10:113908677:113908778:+|3pUTR|ENSG00000196865|unk|total|mutant (ssRNA)", "RNA": "GGGAGUUCUACAGUCCGACGAUCAGCUAUGCUCCUUACUUACUUCUUUUAUUAUAAACAAAUUCCUUUGCUUUGGCUGAUACCCGCUGAGUCAUUGAUCAUCAUUGGUACCAUGAUAUUGUAAUCUAUGCUGCUAUUUGGCACCAACAGAGGAUUGAGCAUCA"}, "B22": {"name": "chr10:95606323:95606429:-|3pUTR|ENSG00000059573|unk|total|mutant (ssRNA)", "RNA": "GGGAGUUCUACAGUCCGACGAUCCCAUGGCUGCUUUGUGUCACCUCAGUGACUUACAGUCCCCCUUGGCAUUCCGUUGGUACCCGAGCCAGUCAUCCUUAACAAAUCUUUUCACAUUUUAUUUCUUUCACAUGCCGUCAUCUUCAACAGAGGAUUGAGCAUCA"}}, "note": "This is one part of the list.", "data": [{"target": "T1, UNK ZnF1-6 (called full-length) (human, UniProt Q9C0B0 30-357)", "T1 sequence": "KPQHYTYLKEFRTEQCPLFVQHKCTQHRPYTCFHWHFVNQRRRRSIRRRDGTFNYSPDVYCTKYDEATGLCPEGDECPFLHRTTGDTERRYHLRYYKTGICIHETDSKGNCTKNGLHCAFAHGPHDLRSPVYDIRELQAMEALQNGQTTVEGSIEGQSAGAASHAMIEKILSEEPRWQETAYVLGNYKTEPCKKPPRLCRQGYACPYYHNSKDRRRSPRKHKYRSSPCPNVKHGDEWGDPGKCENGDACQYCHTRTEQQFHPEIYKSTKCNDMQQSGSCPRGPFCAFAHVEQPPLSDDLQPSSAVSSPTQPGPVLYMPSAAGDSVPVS", "assay": "nsRBNS (natural sequence RNA bind-n-seq); RBNS binding buffer (assumed for nsRBNS): 25 mM Tris pH 7.5, 150 mM KCl, 3 mM MgCl2, 0.01% Triton X-100, 500 ug/ml BSA, 20 U/ml SUPERase-In, 4 C; UNK is unkempt and MSI1 is Musashi-1; names of the RNAs are library labels; protein concentration not given here; high values mean tight binding", "units": {"binding signal": "enrichment R"}, "values": [{"binder": "B1", "binding signal": 228}, {"binder": "B2", "binding signal": 0.592}, {"binder": "B3", "binding signal": 0.489}, {"binder": "B4", "binding signal": 0.623}, {"binder": "B5", "binding signal": 0.574}, {"binder": "B6", "binding signal": 5.89}, {"binder": "B7", "binding signal": 0.706}, {"binder": "B8", "binding signal": 0.304}, {"binder": "B9", "binding signal": 5.81}, {"binder": "B10", "binding signal": 0.513}, {"binder": "B11", "binding signal": 0.418}, {"binder": "B12", "binding signal": 3.26}, {"binder": "B13", "binding signal": 0.442}, {"binder": "B14", "binding signal": 0.763}, {"binder": "B15", "binding signal": 0.57}, {"binder": "B16", "binding signal": 5.61}, {"binder": "B17", "binding signal": 0.423}, {"binder": "B18", "binding signal": 3.86}, {"binder": "B19", "binding signal": 1.53}, {"binder": "B20", "binding signal": 16.7}, {"binder": "B21", "binding signal": 5.02}, {"binder": "B22", "binding signal": 6.24}]}]}
